Drawing on the supplement of paper PMC4723716, this text covers viability index for 46 compounds.

± gives the uncertainty stated by the source. Whole data set: some 9,900 compounds, median “viability index relative to DMSO control” near 1, cut for the lowest 2% near 0.85. The list shows a part of the results.

For this test, the system named is Plasmodium falciparum NF54 stage V gametocytes. The test is described as follows: viability index relative to DMSO control (fraction); higher = less gametocyte killing. To be noted: 2.5 µM, library set: Broad Institute DOS, incubation time: 72 h. In a few lines: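 In 1,536-well plates, 10 µl of serum-free medium holding P. falciparum NF54 stage V gametocytes (0.75% gametocytemia, 1.25% hematocrit) received compound at 2.5 µM for 72 hr at 37°C in low oxygen. After one to two hours with 3 µl of 2.5 µM MitoTracker Red CMXRos containing 0.13% saponin, red particles of 20–70 µm2 were counted in a single field per well. Viability index is reported as the particle count over the plate mean of wells treated with solvent only.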
For `COCC(=O)N1[C@H](C#N)[C@H](c2ccccc2C2=CCCC2)[C@H]1CO`, the viability index stood at 1.14 ± 0.16.
`CN1C(=O)c2cc(NC(=O)c3ccc(C#N)cc3)ccc2OC[C@H]2O[C@@H](CC(=O)Nc3cc(F)ccc3F)CC[C@@H]21` returned a viability index of 1.13 ± 0.12.
The value for `COc1ccc2c3c([C@H](CO)N(C)C[C@]33CCN(CC3)C(=O)CN3CCOCC3)n(C)c2c1` was 1.02 ± 0.058; that for `O=C(C1CCCCC1)N1C[C@@H]2N[C@H](C1)[C@H]2c1ccc(-c2ccccc2F)cc1` was 1.08 ± 0.092.
The value for `C=C(C)C[C@H]1CCn2nncc2COCCNC1=O` was 1.02 ± 0.015; that for `CC(C)NC(=O)Nc1ccc2c(c1)C(=O)N([C@H](C)CO)C[C@@H](C)[C@H](CN(C)C(=O)C1CCCCC1)OCCCC[C@H](C)O2` was 1.04 ± 0.024; that for `C[C@@H]1C/C=C/CCNC(=O)[C@@H](Cc2ccccc2)N(C)C(=O)c2ccccc2O1.C[C@@H]1C/C=C\CCNC(=O)[C@@H](Cc2ccccc2)N(C)C(=O)c2ccccc2O1` was 1.007 ± 0.0016.
To `NCC[C@H]1CC[C@@H](NC(=O)Cc2ccncc2)[C@@H](CO)O1` belongs 1.1 ± 0.021; to `O=C(Nc1ccc(F)cc1)N1CC(=O)N2[C@@H](CO)[C@@H](c3ccc(C4=CCCC4)cc3)[C@@H]2C1`, 1.02 ± 0.017.
`CN1C(=O)c2cc(NC(=O)Nc3ccc(Cl)cc3)ccc2OC[C@H]2O[C@@H](CC(=O)NCCN3CCCCC3)CC[C@H]21` returned a viability index of 1.01 ± 0.025.
For `CO[C@H]1CN(C)C(=O)c2cccc(C#N)c2OCC[C@@H]2CC[C@@H](OC)[C@@H](CN(C)C(=O)[C@@H]1C)O2`, the viability index came out at 1.03 ± 0.03.
The value for `CC(C)NC(=O)N1[C@H](CO)[C@H](c2ccccc2-c2ccc(F)cc2)[C@@H]1C#N` was 1.15 ± 0.12.
The value for `O=C(Cc1cccnc1)N1CC(=O)N2[C@H](C1)[C@H](c1ccc(C3=CCCCC3)cc1)[C@@H]2CO` was 1.129 ± 0.0029; that for `O=C(c1cccc(F)c1)N1CC2(C1)[C@@H](c1ccccc1)[C@@H](CO)N2Cc1ccccn1` was 1.05 ± 0.048; that for `C[C@H](O)C#Cc1ccc([C@H]2[C@H](CO)N3CCCCN(C(=O)c4ccc5c(c4)OCO5)C[C@@H]23)cc1` was 0.976 ± 0.016.
To `COCC(=O)N1[C@H](CO)[C@H]2c3ccccc3NC[C@H]21` belongs 1.03 ± 0.028; to `C/C=C/c1ccc([C@@H]2[C@@H](CO)N(C(=O)NC(C)C)C23CN(Cc2ccc(OC)cc2)C3)cc1`, 0.993 ± 0.09.
Consider `COCC(=O)Nc1ccc2c(c1)OC[C@@H](C)N(C)C[C@@H](C)[C@H](OC)CN(C)C2=O`, for which the viability index worked out at 1.06 ± 0.007.
In turn, `CO[C@@H](CN(C)C(=O)C1CCOCC1)[C@H](C)CN([C@H](C)CO)S(=O)(=O)c1ccccc1` registered a viability index of 0.985 ± 0.1.
The value for `O=C(C[C@@H]1CC[C@H]2[C@@H](COC[C@H](O)CN2C(=O)Nc2ccccc2)O1)NCc1ccccc1F` was 1.01 ± 0.094.
The value for `O=C(c1ccncc1)N1C[C@@H]2[C@H](c3ccccc31)[C@@H](CO)N2C(=O)CN1CCOCC1` was 1.024 ± 0.0054; that for `C[C@@H]1CN([C@@H](C)CO)C(=O)CCCn2nncc2CO[C@H]1CN(C)C(=O)Nc1ccnc(N2CCOCC2)c1` was 1.03 ± 0.093.
The value for `COc1ccc2c3c([nH]c2c1)[C@H](CO)N(C[C@]31CN(C1)C(=O)c1ccccn1)C(=O)Nc1ccc(F)cc1` was 0.971 ± 0.052.
`N#Cc1ccc(-c2ccc([C@H]3[C@@H]4CN(C(=O)C5CCCCC5)C[C@H]3N4)cc2)cc1` displayed a viability index of 0.943 ± 0.11.
The value for `CO[C@@H]1CC[C@@H]2CCOc3c(C#N)cccc3C(=O)N(C)C[C@@H](c3ccccc3)CC(=O)N(C)C[C@H]1O2` was 0.95 ± 0.044.
To `COc1cccc(NC(=O)N2C[C@@H](O)COC[C@@H]3O[C@@H](CC(=O)N(C)C)CC[C@H]32)c1` belongs 1.02 ± 0.054; to `O=C(c1ccccc1F)N1C[C@H]2[C@@H](c3ccccc31)[C@H](CO)N2Cc1ccc2c(c1)OCO2`, 1.04 ± 0.091.
The value for `CO[C@H]1CC[C@H]2CCOc3ccc(C#N)cc3C(=O)N(C)C[C@@H](c3ccccc3)CC(=O)N(C)C[C@@H]1O2` was 1.03 ± 0.024.
As to `CC(C)C[C@@H]1COCc2cn(nn2)CCCC(=O)N1`, the viability index came out at 1.01 ± 0.091.
The value for `C/C=C/c1ccccc1[C@@H]1[C@@H](CO)N(C(=O)NC2CCCCC2)[C@H]1C#N` was 0.981 ± 0.017; that for `COc1cccc(S(=O)(=O)Nc2ccc3c(c2)C(=O)N(C)[C@H]2CC[C@H](CC(=O)NCC4CCCCC4)O[C@@H]2CO3)c1` was 1.014 ± 0.0095.
To `N#C[C@H]1[C@H](c2ccc(-c3cccc(F)c3)cc2)[C@@H](CO)N1C(=O)CN1CCOCC1` belongs 1.08 ± 0.09; to `CCCNC(=O)c1cc2c(c(-c3cccc(-c4cc5ccccc5o4)c3)n1)[C@H](CCO)N(C(=O)NC(C)C)C2`, 0.889 ± 0.029.
The value for `O=C(C1CCCCC1)N1[C@@H](CO)[C@@H]2c3ccccc3NC[C@@H]21` was 0.99 ± 0.051; that for `Cc1noc(C)c1S(=O)(=O)Nc1ccc2c(c1)C(=O)N([C@H](C)CO)C[C@H](C)[C@H](CN(C)Cc1ccc(C(=O)O)cc1)OCCCC[C@H](C)O2` was 1.11 ± 0.058.
Regarding `Cc1ccccc1-c1ccc([C@H]2[C@H]3CNC[C@@H]2N3Cc2ccc3c(c2)OCO3)cc1`, the viability index was 1.09 ± 0.1.
The value for `C[C@@H]1CN([C@@H](C)CO)C(=O)c2cc(NS(C)(=O)=O)ccc2O[C@@H](C)CCCCO[C@@H]1CN(C)CC1CCCCC1` was 1.14 ± 0.18; that for `C/C=C/c1ccc([C@H]2[C@H](CO)N3C(=O)CN(C(=O)NC4CCCCC4)C[C@@H]23)cc1` was 1 ± 0.04; that for `C[C@@H]1CN([C@H](C)CO)C(=O)c2cccc(NC(=O)c3nc4ccccc4s3)c2O[C@H]1CN(C)C(=O)Nc1ccc2c(c1)OCO2` was 0.9047 ± 0.0069.
`COc1ccc2c3c([C@@H](CO)N(C)C[C@]33CCN(CC3)C(=O)c3cccnc3)n(C)c2c1` registered a viability index of 1.06 ± 0.05.
To `CO[C@H]1CC[C@@H]2CCOc3ccc(C#N)cc3C(=O)N(C)C[C@H](c3ccccc3)CC(=O)N(C)C[C@H]1O2` belongs 0.999 ± 0.06; to `CO[C@H](CN(C)S(=O)(=O)c1ccc(C)cc1)[C@H](C)CN([C@@H](C)CO)S(=O)(=O)c1cccc(Cl)c1`, 0.988 ± 0.04; to `O=C(C[C@H]1CC[C@H]2[C@@H](COC[C@H](O)CN2Cc2ccc(C(F)(F)F)cc2)O1)N1CCc2ccccc2C1`, 1.08 ± 0.08.
`CNC(=O)C[C@H]1CC[C@@H]2[C@@H](COc3ccc(NS(=O)(=O)c4ccc(F)cc4)cc3C(=O)N2C)O1` gave a viability index of 0.986 ± 0.029.
Turning to `CNC[C@@H]1Oc2ccc(NC(=O)NC3CCCCC3)cc2CC(=O)N([C@H](C)CO)C[C@@H]1C`, the viability index came out at 0.963 ± 0.082.
The compound `CCS(=O)(=O)Nc1ccc2c(c1)C(=O)N(C)C[C@@H](OC)[C@H](C)CN(C(=O)c1ccc3c(c1)OCO3)[C@@H](C)CO2` showed a viability index of 1.14 ± 0.027.
